# Laboratory results reported in article PMC4336329 (PLoS ONE, 2015).
# The campaign covered roughly 310,000 compounds. About 14,000 (4.5%) showed an effect of 50% or more. Effects have a minus sign here. This is one part of the list.
# Target: human ether-à-go-go-related gene (hERG) potassium channel (human, UniProt Q12809)
# Assay: primary screen, population patch clamp on CHO cells stably expressing hERG
# 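Also: peak tail current of the secondary pulse compared with the same well before compound.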
# Sequence of human ether-à-go-go-related gene (hERG) potassium channel (Q12809 whole entry, looked up): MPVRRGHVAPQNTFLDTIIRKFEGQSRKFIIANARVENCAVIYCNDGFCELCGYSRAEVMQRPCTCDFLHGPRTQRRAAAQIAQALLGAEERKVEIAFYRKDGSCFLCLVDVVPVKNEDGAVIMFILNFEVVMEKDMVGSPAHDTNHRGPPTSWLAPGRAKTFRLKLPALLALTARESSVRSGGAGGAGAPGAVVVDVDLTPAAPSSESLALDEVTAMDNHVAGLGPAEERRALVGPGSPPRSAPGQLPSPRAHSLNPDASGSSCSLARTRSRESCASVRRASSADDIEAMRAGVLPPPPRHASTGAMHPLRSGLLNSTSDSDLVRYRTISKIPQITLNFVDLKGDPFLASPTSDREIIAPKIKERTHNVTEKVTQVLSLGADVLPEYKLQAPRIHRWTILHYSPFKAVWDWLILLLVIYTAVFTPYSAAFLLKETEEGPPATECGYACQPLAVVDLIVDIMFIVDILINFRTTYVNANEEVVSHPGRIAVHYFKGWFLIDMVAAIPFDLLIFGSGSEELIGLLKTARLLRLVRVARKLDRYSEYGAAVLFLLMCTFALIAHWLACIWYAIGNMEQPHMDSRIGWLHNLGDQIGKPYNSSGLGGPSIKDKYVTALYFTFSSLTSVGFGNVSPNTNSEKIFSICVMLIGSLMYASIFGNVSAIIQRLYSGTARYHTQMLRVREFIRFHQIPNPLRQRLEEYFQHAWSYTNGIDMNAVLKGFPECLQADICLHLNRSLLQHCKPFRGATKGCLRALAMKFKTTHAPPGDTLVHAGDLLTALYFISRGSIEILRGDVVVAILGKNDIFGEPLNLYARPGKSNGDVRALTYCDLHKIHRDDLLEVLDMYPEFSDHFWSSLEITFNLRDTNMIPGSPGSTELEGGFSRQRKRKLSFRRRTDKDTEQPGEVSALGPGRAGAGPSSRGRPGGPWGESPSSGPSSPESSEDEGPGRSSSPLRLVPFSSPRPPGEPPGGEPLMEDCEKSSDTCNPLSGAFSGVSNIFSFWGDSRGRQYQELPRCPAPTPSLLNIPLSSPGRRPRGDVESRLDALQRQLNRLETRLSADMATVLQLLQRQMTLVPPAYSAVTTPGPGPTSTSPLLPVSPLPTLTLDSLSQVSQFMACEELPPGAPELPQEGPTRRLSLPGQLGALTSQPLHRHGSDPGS
row,Compound,"hERG current change (%, negative = inhibition) at 10uM [%]"
1,Cc1onc(-c2c(Cl)cccc2Cl)c1C(=O)n1nnc2ccccc21,-3.48
2,COc1ccc(OC)c(NC(=O)CN(C)S(=O)(=O)c2ccc(Cl)cc2)c1,-12.4
3,O=C(CCN1C(=O)C2C3C=CC(C3)C2C1=O)NCCN1CCCc2ccccc21 (stereo not shown),-9.32
4,CCCNC(=O)NC(=O)COc1c(F)c(F)cc(F)c1F,-7.17
5,CCn1nc(C(=O)OCc2c(C)noc2C)c2ccccc2c1=O,-7.92
6,O=C(CSc1nnc(NC(=O)c2ccccc2[N+](=O)[O-])s1)NCc1ccco1,0.0498
7,COc1ccc(C2=NN(C(=O)c3cccs3)C(O)(C(F)(F)F)C2)cc1 (stereo not shown),14.8
8,Cc1cc(Cl)ccc1OC(C)C(=O)OCC(=O)Nc1ccc2[nH]c(=O)[nH]c2c1 (stereo not shown),-3.04
9,CC1(C)Cc2ccccc2C(COc2ccccc2)=N1.Cl,21.3
10,Fc1ccc(NC(=S)N2CCN(C/C=C/c3ccccc3)CC2)c(F)c1,-25.8
11,Cn1c(SCC(=O)N/N=C/C=C\c2ccco2)nc2ccccc21,-50.6
12,CN(CC(=O)Nc1ccccc1Br)C(=O)c1ccc(COc2ccccc2)cc1,9.54
13,CCCC(C)C(=O)Nc1cc([N+](=O)[O-])ccc1Cl (stereo not shown),7.26
14,Cc1cc(=O)oc2cc(OCC(=O)NCCCn3ccnc3)ccc12,7.58
15,C=C1CN(CC(=O)OC)S(=O)(=O)c2ccccc21,20.2
16,Nc1ccc(S(=O)(=O)N2CCCc3ccccc32)cc1,-12.1
17,COc1cccc(C2=NOC(C(=O)NCc3ccccc3)C2)c1 (stereo not shown),-0.722
18,CC(C)C[C@@H](CN=[N+]=[N-])N1CCN(C)CCC1=O,14
19,Cc1ccc(NC(=O)c2ccccc2OCC(=O)Nc2ccccc2F)cc1S(=O)(=O)N(C)C,1.96
20,c1ccc(N2CCN(c3cnccn3)CC2)nc1,2.29
21,COC(=O)C1=C(C(=O)OC)N2C=CC=CC2(C)C(C(=O)OC)=C1C(=O)OC (stereo not shown),-5.49
22,COc1ccc(CCNC(=O)CCCn2c(=O)[nH]c3cc(OC)c(OC)cc3c2=O)cc1OC,2.91
23,Cc1ccc(CN(Cc2ccccc2)C(=S)NCC(=O)N2CCC3(CC2)OCCO3)o1,-38.3
24,COc1ccc(Sc2nnc(Cc3ccccc3)c3ccccc23)cc1,-18
25,CCOc1ccc2oc(=O)cc(CN3CCN(Cc4ccccc4)CC3)c2c1,-56.7
